# Reference: the supplement of paper PMC3694890
# ± gives the uncertainty stated by the source. This is one part of the list. A small y stands for phosphotyrosine.
# B1: ACTS_242/A1 (peptide)
# chain: yELPDG
# B2: HCK_330/A1 (peptide)
# chain: yIITEF
# B3: HCK_51/A1 (peptide)
# chain: yVPDPT
# B4: FLT3_597/A1 (peptide)
# chain: yEYDLK
# B5: FLT3_401/A1 (peptide)
# chain: ySISKF
# B6: FLT3_166/A1 (peptide)
# chain: yTLRRP
# B7: HCK_522/A1 (peptide)
# chain: yQQQPG
# B8: FLT3_842/A1 (peptide)
# chain: yVVRGN
# B9: HCK_209/A1 (peptide)
# chain: yISPRS
# B10: FYN_30/A1 (peptide)
# chain: yGTDPT
# B11: FLT3_591/A1 (peptide)
# chain: yVDFRE
# B12: GRB10_67/A1 (peptide)
# chain: ySACSM
# B13: FLT3_969/A1 (peptide)
# chain: yQNRRP
# B14: FLT3_416/A1 (peptide)
# chain: yIFHAE
# B15: GRB2_160/A1 (peptide)
# chain: yVQALF
# B16: HSP72_42/A1 (peptide)
# chain: yVAFTD
# B17: HCK_411/A1 (peptide)
# chain: yTAREG
# B18: ACTS_220/A1 (peptide)
# chain: yVALDF
# B19: FLT3_589/A1 (peptide)
# chain: yFYVDF
# B20: HSP72_108/A1 (peptide)
# chain: yKGETK
# B21: GRB7_107/A1 (peptide)
# chain: ySEDGA
# B22: FLT3_599/A1 (peptide)
# chain: yDLKWE
# B23: IGF1R_1280/A1 (peptide)
# chain: yYSEEN
# B24: GRB2_209/A1 (peptide)
# chain: yVTPVN
# B25: FLT3_726/A1 (peptide)
# chain: yPTFQS
# B26: FYN_28/A1 (peptide)
# chain: yRYGTD
# B27: HS105_189/A1 (peptide)
# chain: yDLVPL
# B28: FYN_39/A1 (peptide)
# chain: yPSFGV
# B29: GRAP2_45/A1 (peptide)
# chain: yVPKNF
# B30: HCK_515/A1 (peptide)
# chain: yTATES
# B31: ACTS_296/A1 (peptide)
# chain: yANNVM
# B32: HS105_14/A1 (peptide)
# chain: yIAVAR
# B33: GRB10_404/A1 (peptide)
# chain: yQNYRI
# Target: GRB2 (endogenous complexes from cell lysate), P62993
# Experiment: GRB2 complex binding differential signal (pY peptide minus Ala control peptide) (fluorescence intensity units); higher = stronger GRB2 complex binding
# Details: MCF7
# 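Further: phosphopeptide probes on the chip at 1–4 µM, lysate proteins bound in 20 mM Tris pH 7.0 buffer with 140 mM NaCl, 1% Triton X-100 and 5% glycerol.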
row,Binder,GRB2 complex binding differential signal
1,B1,7560 ± 620
2,B2,270 ± 350
3,B3,1970 ± 650
4,B4,307 ± 190
5,B5,2630 ± 690
6,B6,1930 ± 370
7,B7,2630 ± 800
8,B8,4820 ± 800
9,B9,15800 ± 1900
10,B10,2020 ± 670
11,B11,467 ± 490
12,B12,718 ± 400
13,B13,44200 ± 4400
14,B14,1.5 ± 120
15,B15,336 ± 260
16,B16,79.7 ± 1800
17,B17,2200 ± 290

row,Binder,GRB2 complex binding differential signal
1,B18,86.8 ± 560
2,B19,159 ± 440
3,B20,654 ± 400
4,B21,240 ± 180
5,B22,29.2 ± 160
6,B23,-0.875 ± 280
7,B24,28600 ± 8800
8,B25,142 ± 480
9,B26,587 ± 570
10,B27,371 ± 280
11,B28,-287 ± 280
12,B29,3340 ± 690
13,B30,1770 ± 510
14,B31,24300 ± 3300
15,B32,6010 ± 440
16,B33,22000 ± 5600

# Same assay, conditions: MCF10A
row,Binder,GRB2 complex binding differential signal
1,B1,3320 ± 770
2,B2,168 ± 360
3,B3,1780 ± 1100
4,B4,146 ± 220
5,B5,765 ± 240
6,B6,1050 ± 530
7,B7,2510 ± 990
8,B8,2220 ± 650
9,B9,14700 ± 3200
10,B10,1450 ± 500
11,B11,94.2 ± 180
12,B12,459 ± 290
13,B13,12200 ± 4900
14,B14,67.3 ± 150
15,B15,503 ± 190
16,B16,615 ± 370
17,B17,1840 ± 260

row,Binder,GRB2 complex binding differential signal
1,B18,268 ± 360
2,B19,36.5 ± 130
3,B20,1080 ± 240
4,B21,389 ± 210
5,B22,39.2 ± 230
6,B23,166 ± 630
7,B24,8790 ± 3700
8,B25,55 ± 150
9,B26,259 ± 480
10,B27,490 ± 250
11,B28,68.2 ± 140
12,B29,1870 ± 630
13,B30,1290 ± 340
14,B31,17300 ± 2900
15,B32,3510 ± 550
16,B33,25900 ± 3800

# Same assay, conditions: MDA-MB-231
row,Binder,GRB2 complex binding differential signal
1,B1,2810 ± 850
2,B2,510 ± 280
3,B3,1420 ± 410
4,B4,1080 ± 370
5,B5,716 ± 300
6,B6,882 ± 320
7,B7,571 ± 340
8,B8,691 ± 230
9,B9,4670 ± 770
10,B10,729 ± 300
11,B11,392 ± 460
12,B12,828 ± 370
13,B13,3880 ± 830
14,B14,373 ± 280
15,B15,997 ± 390
16,B16,2820 ± 550
17,B17,581 ± 350

row,Binder,GRB2 complex binding differential signal
1,B18,1760 ± 710
2,B19,266 ± 380
3,B20,370 ± 480
4,B21,588 ± 340
5,B22,354 ± 320
6,B23,417 ± 340
7,B24,5350 ± 670
8,B25,-114 ± 1000
9,B26,443 ± 230
10,B27,828 ± 290
11,B28,282 ± 280
12,B29,680 ± 300
13,B30,1820 ± 560
14,B31,5360 ± 1200
15,B32,1170 ± 490
16,B33,9000 ± 1200

# Same assay, conditions: T47D
row,Binder,GRB2 complex binding differential signal
1,B1,2240 ± 1000
2,B2,964 ± 1200
3,B3,2860 ± 1900
4,B4,700 ± 910
5,B5,681 ± 1600
6,B6,368 ± 940
7,B7,694 ± 1200
8,B8,919 ± 1000
9,B9,4110 ± 5000
10,B10,304 ± 860
11,B11,1260 ± 1000
12,B12,2090 ± 1800
13,B13,7020 ± 2200
14,B15,3000 ± 1500
15,B16,8300 ± 2600
16,B17,733 ± 1200

row,Binder,GRB2 complex binding differential signal
1,B18,3460 ± 2800
2,B19,165 ± 1100
3,B20,472 ± 1100
4,B21,613 ± 1700
5,B22,23.3 ± 1100
6,B23,135 ± 1000
7,B24,6830 ± 2600
8,B25,281 ± 1000
9,B26,848 ± 990
10,B27,1590 ± 1300
11,B28,458 ± 1200
12,B29,1830 ± 1500
13,B30,3930 ± 1300
14,B31,12300 ± 5000
15,B32,4090 ± 1000
16,B33,33100 ± 11000
